Results taken from the RNAGym collection of RNA variant scans (doi:10.1093/nar/gkz1192).
The source gives no read counts; variants with many changes may rest on few reads.

B1: CPEB3 Ribozyme (parent)
chain: UAACAGGGGGCCACAGCAGAAGCGUUCACGUCGCAGCCCCUGUCAGAUUCUGGUGAAUCUGCGAAUUCUGCUGUAUAUCUC

Variants of: B1
Assay: self-cleavage, relative activity (ratio to wild type); higher = more cleavage; in vitro, sequencing
Procedure, shortened: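 After error-prone PCR and barcoding, CPEB3 ribozyme mutant libraries were transcribed with T7 RNA polymerase at 37°C for 5 hours, then given 15 min with DNase I before an EDTA stop, and they cleaved during both steps. Reverse transcription with template switching preceded Illumina sequencing. Relative activity divides a variant's cleaved/total read fraction by the unmutated ribozyme's. At least 5 reads were required per variant, and three batches were averaged.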

Variant	self-cleavage
UAACAGGGGGCCACAGCAGAAGCGUCCACGUUGCAGCACCUGUCAGAUUCUGGUGAAUCUGCGAAUACUGCUGUAUAUCUC [U26C C32U C38A U67A]	0.13
UAACAGGGGGCCACAGCAGAAGCGUCCACGUUGCAGCCCCCGUCAGAUUCUGGUGAAUCUGCGAAUUCUGCUGUAUAUCUC [U26C C32U U41C]	0.52
UAACAGGGGGCCACAGCAGAAGCGUCCACGUUGCAGCCCCUGUCAGAUUCUGGUGAAUCUGCGAAUCCUGCUGUAUAUCUC [U26C C32U U67C]	0.11
UAACAGGGGGCCACAGCAGAAGCGUCCACGUCGAAGCCCCUGUCAGAUUCUGGUGAAUCUGCGAAUUCAGCUGUAUAUCUC [U26C C34A U69A]	0.16
UAACAGGGGGCCACAGCAGAAGCGUCCACGUCGCAGACCCUGUCAGAUUCUGGCGAAUCUGCGAAUUCUGCUGUAUAUCUC [U26C C37A U54C]	0.42
UAACAGGGGGCCACAGCAGAAGCGUCCACGUCGCAGUCCCUGCCUGACUCGGGUGAAUCUGCGAAUUCUGCUGUAUAUCUC [U26C C37U U43C A45U U48C U51G]	0.05
UAACAGGGGGCCACAGCAGAAGCGUCCACGUCGCAGUCCCUGUCAGAUCCUGGUGAAUCUGCGAAUUCUGCUGUAUAUCUC [U26C C37U U49C]	0.2
UAACAGGGGGCCACAGCAGAAGCGUCCACGUCGCAGUCCCUGUCAGAUUCUGGUGAAUCGGCGAAUUCUGCUGUAUAUCUC [U26C C37U U60G]	0.11
UAACAGGGGGCCACAGCAGAAGCGUCCACGUCGCAGCUCCUGUCAGAUUCUGGUGAAUCUGCGUAUUCUGCUGUAUAUCUC [U26C C38U A64U]	0.22
UAACAGGGGGCCACAGCAGAAGCGUCCACGUCGCAGCCACUGUCAGAUUCUGGGGAAUCUGCGAAUUCUGCAGUAUAUCUC [U26C C39A U54G U72A]	0.2
UAACAGGGGGCCACAGCAGAAGCGUCCACGUCGCAGCCUCUGUCAGGUUCUGGUGAAUCUGCGAAUUCUGCUGGAUAUCUC [U26C C39U A47G U74G]	0.53
UAACAGGGGGCCACAGCAGAAGCGUCCACGUCGCAGCCUAUGUCAGAUUCUGGUGAAUCUGCGGAUUCAGCUGUAUAUCUC [U26C C39U C40A A64G U69A]	0.08
UAACAGGGGGCCACAGCAGAAGCGUCCACGUCGCAGCCCUUGUCAGAUUCUGGUGUAUCUGCGAAUUCUGCUGUAUAUCUC [U26C C40U A56U]	0.11
UAACAGGGGGCCACAGCAGAAGCGUCCACGUCGCAGCCCCUGUCAGAUUCUGGUGAAUCUGAGAAUUCUGCCGUAUAUCUC [U26C C62A U72C]	0.13
UAACAGGGGGCCACAGCAGAAGCGUCCACGUCGCAGCCCCUGUCAGAUUCUGGUGAAUCUGUGAGUUCUGCUGUAUAUCUC [U26C C62U A65G]	0.28
UAACAGGGGGCCACAGCAGAAGCGUCCACGUCGCAGCCCCUGUCAGAUUCUGGUGAAUCUGCGAAUUCUGUUGUGUAUCUC [U26C C71U A75G]	0.27
UAACAGGGGGCCACAGCAGAAGCGUCCACCUCGCAGCCCCUGUCAGAUUCUGGUGAAUCUGCGAAUUCUGCUGUUUAUCUC [U26C G30C A75U]	0.43

Variant	self-cleavage
UAACAGGGGGCCACAGCAGAAGCGUCCACGUCACAGCCCUAGUCGGAUUCUGGUGAAUCUGCGAAUUCUGCUGUAUAUCUC [U26C G33A C40U U41A A45G]	0.19
UAACAGGGGGCCACAGCAGAAGCGUCCACGUCACAGCCCCUGUCAGAUCCUGGUGAAUCUGCGAAUUCUGCUGUAUAUCUC [U26C G33A U49C]	0.19
UAACAGGGGGCCACAGCAGAAGCGUCCACGUCACAGCCCCUGUCAGAUUCUGGUGAAUCUGCGAAUCCUGCUGUAUUCCUC [U26C G33A U67C A77U U78C]	0.1
UAACAGGGGGCCACAGCAGAAGCGUCCACGUCCCAGCCCCUGUCAGAUUCUGUUGAAUCUGCGAAUUCUGCUGUGUAUCUC [U26C G33C G53U A75G]	0.17
UAACAGGGGGCCACAGCAGAAGCGUCCACGUCCCAGCCCCCGUAAGAUUCUGGUGAAUCUGGGAAUUCAGCUGUAUAUCUC [U26C G33C U41C C44A C62G U69A]	0.06
UAACAGGGGGCCACAGCAGAAGCGUCCACGUCGCAACCCCUGUCAGAUUCUGGUGAAUCUGCGAAUUCUGCUGUCUAUCUC [U26C G36A A75C]	0.18
UAACAGGGGGCCACAGCAGAAGCGUCCACGUCGCACCCCCUGUCAGAUCCUGGUGAAUCUGCUAAUUCAGCAGUAUAUCAC [U26C G36C U49C G63U U69A U72A U80A]	0.03
UAACAGGGGGCCACAGCAGAAGCGUCCACGUCGCAGCCCCUUUCAGGUUCUGGUGGAUCUGCGAAUUCUGCCGUAGAUCUC [U26C G42U A47G A56G U72C U76G]	0.04
UAACAGGGGGCCACAGCAGAAGCGUCCACGUCGCAGCCCCUGUCAAGUUCUGGUGAAUCCGCGUAUUCUGCUGUAUAUCUC [U26C G46A A47G U60C A64U]	0.07
UAACAGGGGGCCACAGCAGAAGCGUCCACGUCGCAGCCCCUGUCAGAUUCUGCUGAAUCCGCGAAUUCUGCUGUAAAUCUC [U26C G53C U60C U76A]	0.28
UAACAGGGGGCCACAGCAGAAGCGUCCACGUCGCAGCCCCUGUCAGAUUCUGGUAAAUCUGCAAAUUCUGCUGUAUAUCUC [U26C G55A G63A]	0.2
UAACAGGGGGCCACAGCAGAAGCGUCCACGUCGCAGCCCCUGUCAGAUUCUGGUAAAUCUGCGAAUUCUGCAGAAUAUCUC [U26C G55A U72A U74A]	0.26
UAACAGGGGGCCACAGCAGAAGCGUCCACGUCGCAGCCCCUGUCAGAUUCUGGUGAAUCUACGAAUUCUGCCGUAUAACUC [U26C G61A U72C U78A]	0.15
UAACAGGGGGCCACAGCAGAAGCGUCCACGACGCAGCCCCUGUCAGUUUCUGGCGAAUCUGCGAAUUCUGCCGUAAAUCUC [U26C U31A A47U U54C U72C U76A]	0.1
UAACAGGGGGCCACAGCAGAAGCGUCCACGACGCAGCCCCUGUCAGAUUCUGGUGAAUCUGCGAAUUCUGCUAUAUAUCUC [U26C U31A G73A]	0.48
UAACAGGGGGCCACAGCAGAAGCGUCCACGACGCAGCCCCUGUCAGAUACUGGUGAAUCUGCGAAUUCUGCUGUAUAUCUC [U26C U31A U49A]	0.13
UAACAGGGGGCCACAGCAGAAGCGUCCACGCCGCAGCCCCUGUCAGAUUCUGGUGAAUCUGCGAAUUCUGCUGUAUGUCUC [U26C U31C A77G]	0.32
